In PMC5297747, “Pnserpin: A Novel Serine Protease Inhibitor from Extremophile Pyrobaculum neutrophilum” (International Journal of Molecular Sciences, 2017):

Target: T1, Pnserpin (Pyrobaculum neutrophilum, UniProt B1YBN4 1-393)
T1 construct: full length gene synthesized and cloned into pET-28a(+); Purified protein ran as a single band of 44 kDa; also called serpin homologue of Pyrobaculum neutrophilum; source: E. coli BL21-CodonPlus (DE3)-RIL, purified (nickel-chelating chromatography)
T1 sequence (looked up): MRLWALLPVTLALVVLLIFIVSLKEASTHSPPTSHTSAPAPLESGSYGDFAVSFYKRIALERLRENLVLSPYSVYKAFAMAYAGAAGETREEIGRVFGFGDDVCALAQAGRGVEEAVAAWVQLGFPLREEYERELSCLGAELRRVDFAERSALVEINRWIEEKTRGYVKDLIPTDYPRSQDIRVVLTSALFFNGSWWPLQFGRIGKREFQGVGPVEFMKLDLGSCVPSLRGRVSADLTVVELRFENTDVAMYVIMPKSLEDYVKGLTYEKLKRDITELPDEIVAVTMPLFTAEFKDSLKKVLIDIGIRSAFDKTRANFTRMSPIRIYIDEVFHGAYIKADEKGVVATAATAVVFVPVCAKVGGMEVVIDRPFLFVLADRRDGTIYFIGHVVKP
Assay: progress curve of protease inhibition; 40 °C; buffer B (100 mM HEPES-NaOH pH 7.5, 200 mM NaCl, 10 mM CaCl2, 0.01% triton X-100, 0.1% glycerol); 1 mM Suc-AAPF-pNA or MeO-SucAAPV-pNA as substrate; various concentrations of Pnserpin; absorption at 410 nm; kass = kunc × (1 + [S]/KM)
Details: both partners purified

- kon: 22700 M⁻¹ s⁻¹
B1: porcine pancreatic elastase (enzyme, UniProt P00772 27-266, looked up)
chain: VVGGTEAQRNSWPSQISLQYRSGSSWAHTCGGTLIRQNWVMTAAHCVDRELTFRVVVGEHNLNQNDGTEQYVGVQKIVVHPYWNTDDVAAGYDIALLRLAQSVTLNSYVQLGVLPRAGTILANNSPCYITGWGLTRTNGQLAQTLQQAYLPTVDYAICSSSSYWGSTVKNSMVCAGGDGVRSGCQGDSGGPLHCLVNGQYAVHGVTSFVSRLGCNVTRKPTVFTRVSAYISWINNVIASN
notes: porcine pancreatic elastase; printed molecular weight 24 kD
